From paper PMC10686051 (Nature structural & molecular biology, 2023) come the findings set out here.

As a reminder, the stoichiometry N is a count of units in the complex or per binding partner.

The data set concerns the molecule itself. In words: SEC + other: SEC-SAXS. (SEC sorts molecules by how far they enter the pores of the column.)

B1: DYNLL1 wild-type recombinant protein (natural protein)
chain: not shown
For B1, the “stoichiometry N” value was found to be 2.

B2: DYNLL[…]A recombinant protein (natural protein)
chain: not shown
In the case of B2, the “stoichiometry N” value was found to be 2.
